From PubChem BioAssay AID1645887 (National Center for Advancing Translational Sciences (NCATS), 2021)
Values joined by “and” are separate entries in the source; they are usually repeats but may differ in a detail not shown here. Equal values may be shown once. The campaign covered roughly 16,000 compounds. About 40 (0.2%) were called active. Not shown: some 1% with an inconclusive outcome. The call rests on the fitted dose curve; in most records, active means well fitted activation curve with a large enough effect; inconclusive means small, poorly fitted or top-dose-only effect, or another doubt; inactive means no such curve, though single readings can be large or run the other way. This is one part of the list.

target: Rap guanine nucleotide exchange factor 4 (Homo sapiens) (UniProt Q8WZA2); test: Validation qHTS for agonist of cAMP-regulated guanine nucleotide exchange factor 4 (EPAC2); conditions: EPAC2 Rap1B BODIPY-GDP exchange, fluorescence; activation: active compounds read high;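 further: exchange makes BODIPY-GDP fluorescence drop when released from Rap1B; series mostly up to about 150 µM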
Sequence of UniProt Q8WZA2 (Q8WZA2 whole entry, looked up): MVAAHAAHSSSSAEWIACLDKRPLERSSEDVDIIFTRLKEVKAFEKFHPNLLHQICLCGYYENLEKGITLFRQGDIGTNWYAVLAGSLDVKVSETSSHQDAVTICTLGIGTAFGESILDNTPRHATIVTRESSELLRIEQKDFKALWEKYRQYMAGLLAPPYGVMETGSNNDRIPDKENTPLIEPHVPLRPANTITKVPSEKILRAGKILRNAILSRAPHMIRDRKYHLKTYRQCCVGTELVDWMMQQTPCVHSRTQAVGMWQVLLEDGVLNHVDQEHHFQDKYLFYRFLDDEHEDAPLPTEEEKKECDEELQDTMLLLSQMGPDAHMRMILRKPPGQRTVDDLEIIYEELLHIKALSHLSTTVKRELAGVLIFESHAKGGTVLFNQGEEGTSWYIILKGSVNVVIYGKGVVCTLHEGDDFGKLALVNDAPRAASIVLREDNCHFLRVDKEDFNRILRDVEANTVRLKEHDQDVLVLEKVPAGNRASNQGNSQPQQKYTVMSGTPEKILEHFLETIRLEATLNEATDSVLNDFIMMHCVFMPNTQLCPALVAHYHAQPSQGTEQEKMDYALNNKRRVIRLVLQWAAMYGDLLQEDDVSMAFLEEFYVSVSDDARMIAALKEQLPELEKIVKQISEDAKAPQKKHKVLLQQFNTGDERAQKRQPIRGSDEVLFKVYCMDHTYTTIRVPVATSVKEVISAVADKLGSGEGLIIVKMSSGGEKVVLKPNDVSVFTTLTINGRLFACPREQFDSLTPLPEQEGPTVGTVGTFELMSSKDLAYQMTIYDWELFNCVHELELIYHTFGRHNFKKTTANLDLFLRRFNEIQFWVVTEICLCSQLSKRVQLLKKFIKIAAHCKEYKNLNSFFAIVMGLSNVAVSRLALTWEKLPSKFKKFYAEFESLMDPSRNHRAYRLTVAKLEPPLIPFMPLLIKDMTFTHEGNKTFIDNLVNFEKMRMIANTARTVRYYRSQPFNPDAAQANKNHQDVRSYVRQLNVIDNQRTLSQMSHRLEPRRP
How it was run: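 Signal normalized against 6.5 mM cAMP as agonist control. Mix of EPAC2 (100 nM), RAP1B-BODIPY-GDP (250 nM) and GDP (50 uM) was read kinetically at 480/540 nm, every 5 min over 30 min, after 5 min room-temperature incubation with compound.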
On the % scale 0 is the no-effect control and ±100 the full control effect.

activation, inactive:
O=S(=O)(c1ccccc1)N1CCC[C@@]2(CCN(Cc3cc(C(F)(F)F)cc(C(F)(F)F)c3)C2)C1 4.59%
CSc1nc(N)c2ncn([C@@H]3O[C@H](COP(=O)(O)OP(=O)(O)O)C(O)[C@H]3O)c2n1 (stereo not given in full) 9.85%
O=S(=O)([O][Al])OC[C@H]1O[C@@](COS(=O)(=O)[O][Al])(O[C@H]2O[C@H](COS(=O)(=O)[O][Al])[C@@H](OS(=O)(=O)[O][Al])[C@H](OS(=O)(=O)[O][Al])[C@H]2OS(=O)(=O)[O][Al])[C@@H](OS(=O)(=O)[O][Al])[C@@H]1OS(=O)(=O)[O][Al] 6.5%
COc1cccc(CN2CCC(n3cc(C(=O)N4CCCCC4)nn3)CC2)c1OC 7.09%
COc1ccc(-c2nc3cnc(N4CCNCC4)nc3n(Cc3ccc(F)cc3)c2=O)cc1 -10.9%
COc1cccc(-c2ccc3ncnc(NCCc4c[nH]c5ccc(OC)cc45)c3c2)c1 18.9%
CC(C(=O)O)c1ccc2c(c1)CC(=O)c1ccccc1S2 (stereo not given) -16.2%
Oc1cc2c(cc1O)[C@@H]1c3ccc(O)c(O)c3OC[C@]1(O)C2 -15.4%
O=C1CC(CC(=O)N2CC3CCCC2C3)(c2cccc(F)c2)C(=O)N1Cc1cccnc1 (stereo not given) -20.9%
CN(C)c1ccc(C(=C2C=CC(=[N+](C)C)C=C2)c2ccc(N(C)C)cc2)cc1 17.6% and 12%
O=C(NCCc1nnc2n1CCN(Cc1ccsc1)CC2)c1ccc(F)cc1 -0.665%
CC(=O)NCCNc1ncnc2ccc(-c3ccccc3C)cc12 -2.6%
CCC(=O)c1ccc2c(c1)N(CCCN1CCN(CCO)CC1)c1ccccc1S2 8.15%
COc1ncc2ncc(=O)n(CCC#N)c2n1 -7.28%
COc1ccc(CC2c3cc(OC)c(OC)cc3CC[N+]2(C)CCC(=O)OCCCCCOC(=O)CC[N+]2(C)CCc3cc(OC)c(OC)cc3C2Cc2ccc(OC)c(OC)c2)cc1OC (stereo not given) 0.0972% and -5.05%
CC(=O)[C@H]1CC[C@H]2[C@@H]3CC=C4C[C@@H](O)CC[C@]4(C)[C@H]3CC[C@]12C 2.56%
CCC1C(=O)NCCN1Cc1ccc2c(c1)CN(Cc1cccc(OC)c1OC)CCO2 (stereo not given) 3.24%
O=C(O)CCCC/C=C(\c1ccccc1)c1cccnc1 -30.1%
CC[C@]1(c2ncc[nH]2)Cc2ccccc2O1 -12.2%
COc1ccc(C(=O)NCC2Cc3cccc(-c4cncnc4)c3O2)c(OC)c1OC (stereo not given) 2.02%
